# Measurements taken from PubChem BioAssay AID1347073 (National Center for Advancing Translational Sciences (NCATS), 2019).
# The campaign covered roughly 45,000 compounds. About 200 (0.44%) were called active. Inconclusive means that the source gave no clear call. Such entries were picked first, then a sample of the others. Calls follow the shape of the dose curve; as a rule, active = well fitted activation curve with a large enough effect; inconclusive = small, poorly fitted or top-dose-only effect; inactive = no such curve, though single readings can be large or run the other way. A potency beside an inconclusive call is a rough fit, not a confirmed value.
# Assay: qHTS of TDP-43 Inhibitors: NCGC Sytravon Library Screen; also: nearly all actives have a fitted effect of over 55% in size; as to growth rescue (activation): 0% is about no effect
# Conditions: yeast TDP-43 toxicity rescue, BacTiter-Glo growth, 24 h; growth rescue (activation): at 46.1 µM (top of the series)
# Procedure, shortened: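 TDP-43-expressing yeast, pregrown in raffinose, seeded at OD600 0.02 in galactose medium with compound for 24 hr at 30 deg C. Growth read by BacTiter-Glo luminescence, so rescue of toxicity appears as activation.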
# Potency is read from the fitted curve at half-maximal effect; tags tell the direction and shape of the fitted curve.
SMILES,growth rescue (activation),Potency
COc1ccc(-c2csc(C(O)(c3ccccc3)C(F)(F)F)n2)cn1 (stereo not drawn),inconclusive: 82.1% [activator],–
CCN(CCCNC(=O)CCn1c(=O)[nH]c2ccsc2c1=O)c1ccccc1,–,"inconclusive: 35.5 µM [activator, single point]"
COc1ccc(N(C)C(=O)c2cc3c(s2)-c2ccccc2S(=O)(=O)C3)cc1,–,"inconclusive: 35.5 µM [activator, partial curve, poor fit]"
O=C(NCc1ccco1)c1ccc2sc([C@H]3C[C@H](O)[C@@H](CO)O3)nc2c1,inactive: -0.776%,–
O=C(CCOc1ccccc1F)N1CCN(c2ccccc2O)CC1,–,"inconclusive: 20 µM [activator, partial curve, poor fit]"
CCCn1c(C)cc(C(=O)COc2ccc(C)nc2[N+](=O)[O-])c1C,–,"inconclusive: 35.5 µM [activator, single point]"
CCOc1ccc(C(C)=O)cc1CSc1nnc(-c2ccncc2)n1CCOC,inactive: -4.62%,–
Cc1ccc(-n2ncc3c2CCCC3NC(=O)CSc2ccccn2)cc1C (stereo not drawn),–,"inconclusive: 12.6 µM [activator, partial curve]"
COc1cccc(Nc2nc(N)c([N+](=O)[O-])c(NCc3ccco3)n2)c1,–,"inconclusive: 25.1 µM [activator, single point]"
Cc1ccc2onc(CC(=O)Nc3cc(F)ccc3F)c2c1,–,"inconclusive: 3.55 µM [activator, partial curve, poor fit]"
OC(c1ccc(F)c(F)c1)c1nc(-c2ccccc2)cs1 (stereo not drawn),–,"inconclusive: 20 µM [activator, partial curve, poor fit]"
COc1ccc(NC(=O)CC(C)c2ccccc2)c([N+](=O)[O-])c1 (stereo not drawn),–,"inconclusive: 10 µM [activator, single point]"
c1ccc(OCc2nnnn2-c2ccccc2)cc1,–,"inconclusive: 15.8 µM [activator, single point]"
CC(Oc1ccccc1F)C(=O)NN (stereo not drawn),inactive: 7.92%,–
Cc1ccc(Cl)cc1-c1cc(C(=O)NCc2ccco2)[nH]n1,inconclusive: 143% [activator],–
CCC(OC(=O)CN1C(=O)C(=O)c2ccccc21)C(=O)Nc1ccc(S(N)(=O)=O)cc1 (stereo not drawn),inactive: 13.7%,–
CN1/C(=C\C(=O)Nc2cccc(Cl)c2)C(C)(C)c2ccccc21,–,"inconclusive: 15.8 µM [activator, partial curve, poor fit]"
CCn1c(SCC(=O)N/N=C/c2ccc(C)s2)nc2ccccc21,–,"inconclusive: 10 µM [activator, partial curve, poor fit]"
CCc1nc2ccc(C(=O)Nc3ccc4c(c3)OCC(=O)N4)cn2c1N(C)Cc1nccn1C,inactive: 2.2%,–
Cc1sc(-n2cccc2)c(C(C)NC(=O)Nc2cccc(C(F)(F)F)c2)c1C (stereo not drawn),inactive: 8.9%,–
Oc1ccc(-c2cc(-c3ccc(O)cc3)nc(-c3ccccc3)n2)cc1,–,"inconclusive: 12.6 µM [activator, partial curve, poor fit]"
CCOc1cccc(C(=O)N(Cc2ccc(C)o2)C2CCS(=O)(=O)C2)c1 (stereo not drawn),inactive: 2.58%,–
CC(=O)c1ccc(N(CC(=O)Nc2cc(C)on2)S(=O)(=O)c2ccc(C)cc2)cc1,inactive: -3.19%,–

SMILES,growth rescue (activation),Potency
CN1C(=O)C(CC(=O)Nc2ccc(F)cc2)N(CCCc2ccccc2)C1=S (stereo not drawn),–,"inconclusive: 35.5 µM [activator, partial curve, poor fit]"
O=c1[nH]c2ccccc2nc1Cc1ccc([N+](=O)[O-])cc1,inactive: -14.8%,–
Cc1ccccc1CC(=O)N1CCN(S(=O)(=O)c2ccc(Cl)s2)CC1,–,"inconclusive: 31.6 µM [activator, single point]"
CNC(=O)c1nnsc1S(=O)(=O)c1ccc(Cl)cc1,–,"inconclusive: 2.82 µM [activator, partial curve, poor fit]"
COc1cccc(CN2C(=O)CCC2(C)C(=O)NCCc2ccc(OC)c(OC)c2)c1 (stereo not drawn),inactive: -11.2%,–
COc1ccc(NC(=O)c2cccc(Oc3ccccc3)c2)cn1,–,"inconclusive: 11.2 µM [activator, partial curve, poor fit]"
Cc1cccc(C2c3[nH]c4ccccc4c3CCN2C(=O)Cc2n[nH]c(C)n2)n1 (stereo not drawn),inactive: -1.77%,–
CCNS(=O)(=O)c1cccc(C(=O)c2c(C)cc3ccccn23)c1,–,"inconclusive: 14.1 µM [activator, partial curve, poor fit]"
COc1cc(CN2C[C@@H](CO)O[C@@H](n3cnc4c(NCC(C)C)ncnc43)C2)cc(OC)c1OC,inactive: 4.8%,–
O=C(/C=C/c1ccc(F)cc1)c1ccccc1Br,–,"inconclusive: 31.6 µM [activator, single point]"
CN(C)C(=O)c1ccc(COc2ccccc2Br)o1,–,"inconclusive: 22.4 µM [activator, partial curve, poor fit]"
O=C(CSc1ccc([N+](=O)[O-])cn1)Nc1cc(C(F)(F)F)ccc1N1CCOCC1,–,active: 12.6 µM
COc1ccc(OC)c(CNC(=O)C(C)n2c(C)c3cnn(-c4ccccc4)c(=O)c3c2C)c1 (stereo not drawn),inactive: 6.58%,–
COC(=O)c1cc2sc(C)cc2n1Cc1cccc(OC)c1,inactive: 22%,–
Cc1cc(N/N=C/c2ccc(F)cc2)nc(-n2nc(C)cc2C)n1,–,"inconclusive: 10 µM [activator, single point]"
O=C(COc1ccc(Br)cc1F)NCC1(N2CCCCC2)CCCCC1,inactive: -1.19%,–
Clc1ccc(Cn2c(/C=C/c3ccco3)nc3ccccc32)cc1,–,"inconclusive: 35.5 µM [activator, single point]"
COc1cccc(C(=O)Nc2cc(C)nn2-c2ccccc2)c1OC,–,"inconclusive: 12.6 µM [activator, partial curve, poor fit]"
O=[N+]([O-])c1ccc(OC/C=C2\Oc3ccc([N+](=O)[O-])cc3C2N2CCOCC2)cc1 (stereo not drawn),–,"inconclusive: 31.6 µM [activator, single point]"
COc1ccc(CNC(=O)C(c2ccc(O)cc2)N(Cc2ccco2)C(=O)c2snc(C(N)=O)c2N)cc1 (stereo not drawn),inactive: -7.37%,–
OC(c1ccc(Cl)c(F)c1)c1ncc(-c2ccc(Oc3ccccc3)cc2)[nH]1 (stereo not drawn),inconclusive: -91.5% [activator],–
CC(=O)/C(=C/N(C)C)Sc1ccc(C)cc1,–,"inconclusive: 14.1 µM [activator, single point]"
Cc1ccc(/C=C/C(=O)OCn2nnc3ccccc3c2=O)o1,–,active: 14.1 µM

SMILES,growth rescue (activation),Potency
N#Cc1ccccc1NC(=O)CNc1ccc(Cl)c(C(F)(F)F)c1,–,"inconclusive: 11.2 µM [activator, partial curve, poor fit]"
COc1ccccc1-c1nnc(SCC(=O)N2CCCC2)o1,inactive: 26.5%,–
Cc1ccc(SCn2nnc3ccccc3c2=O)c(C)c1,–,"inconclusive: 10 µM [activator, partial curve, poor fit]"
CCOc1ccc(NS(=O)(=O)c2ccc(NC(=O)C3CCCO3)cc2)cc1 (stereo not drawn),–,"inconclusive: 1 µM [activator, partial curve, poor fit]"
CSc1ccc(S(=O)(=O)N(C)Cc2ccccc2)cc1,–,"inconclusive: 17.8 µM [activator, single point]"
N#Cc1cccc(C(=O)N(CCc2ccccc2)Cc2cccs2)c1,–,"inconclusive: 17.8 µM [activator, single point]"
O=C(N/N=C/c1cn(-c2cccs2)nc1-c1ccccc1)c1ccccc1O,–,"inconclusive: 14.1 µM [activator, partial curve, poor fit]"
C=C(C(=O)c1ccccc1)C(c1ccccc1)C(C)C(=O)c1ccccc1 (stereo not drawn),–,"inconclusive: 22.4 µM [activator, partial curve, poor fit]"
S=C1NC2=C(CCC/C2=C\c2ccccc2)C(c2ccccc2)N1 (stereo not drawn),–,"inconclusive: 2.82 µM [activator, partial curve, poor fit]"
CCOc1ccccc1OCCOCCOc1ccccc1[N+](=O)[O-],–,"inconclusive: 11.2 µM [activator, partial curve, poor fit]"
Cc1ccc(C(=O)N2CCN(c3ccc(F)cc3)CC2)cc1S(=O)(=O)N1CCCCC1,–,"inconclusive: 22.4 µM [activator, partial curve, poor fit]"
Cc1ccc(C(=O)Nc2cc3c(cc2C)n(C)c(=O)c(=O)n3C)cc1,inactive: -2.47%,–
Cc1cc(C)c(S(=O)(=O)N2CCN(C(=O)c3cccs3)CC2)c(C)c1,–,"inconclusive: 11.2 µM [activator, partial curve, poor fit]"
O=C(NC1CCCCC1)C(c1ccncc1)N(C(=O)c1ccco1)c1ccc(F)cc1 (stereo not drawn),inactive: 3.6%,–
C=CCn1c(CNC(=O)c2cccs2)nnc1SCc1ccc(Cl)cc1Cl,–,"inconclusive: 28.2 µM [activator, partial curve, poor fit]"
Cc1ccsc1C(=O)OC(C)C(=O)Nc1ccc(Cl)cn1 (stereo not drawn),–,"inconclusive: 22.4 µM [activator, partial curve, poor fit]"
OC(c1ccc(Cl)c(Cl)c1)c1ncc(-c2ccccc2F)[nH]1 (stereo not drawn),inconclusive: 35.6% [activator],–
Cc1cc(C)cc(NC(=O)CSc2ccccc2)c1,inactive: 13.4%,–
CCOC(=O)C1CCN(C(=O)c2ccc(-n3ccc4ccccc43)s2)CC1,–,"inconclusive: 28.2 µM [activator, single point]"
O=CNc1cc(-c2ccccc2Oc2ccccc2)cn2c(-c3ccc(F)cc3)cnc12,–,"inconclusive: 20 µM [activator, single point]"
CCN1C(=O)/C(=C\C(=O)c2cccs2)c2cc(Br)ccc21,–,"inconclusive: 35.5 µM [activator, single point]"
Cc1cc(NCc2ccccc2)n2ncc(-c3ccccc3)c2n1,–,"inconclusive: 14.1 µM [activator, single point]"
